Measured values from paper PMC4336329 (PLoS ONE, 2015).
Hit rate of the full screen: of about 310,000 compounds, about 14,000 (4.5%) showed an effect of 50% or more. The effect is printed as a negative number. The list shows a part of the results.

Target: human ether-à-go-go-related gene (hERG) potassium channel (human, UniProt Q12809)
Assay: primary screen, population patch clamp on CHO cells stably expressing hERG
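Further: peak tail current of the secondary pulse compared with the same well before compound.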

Sequence of human ether-à-go-go-related gene (hERG) potassium channel (Q12809 whole entry, looked up): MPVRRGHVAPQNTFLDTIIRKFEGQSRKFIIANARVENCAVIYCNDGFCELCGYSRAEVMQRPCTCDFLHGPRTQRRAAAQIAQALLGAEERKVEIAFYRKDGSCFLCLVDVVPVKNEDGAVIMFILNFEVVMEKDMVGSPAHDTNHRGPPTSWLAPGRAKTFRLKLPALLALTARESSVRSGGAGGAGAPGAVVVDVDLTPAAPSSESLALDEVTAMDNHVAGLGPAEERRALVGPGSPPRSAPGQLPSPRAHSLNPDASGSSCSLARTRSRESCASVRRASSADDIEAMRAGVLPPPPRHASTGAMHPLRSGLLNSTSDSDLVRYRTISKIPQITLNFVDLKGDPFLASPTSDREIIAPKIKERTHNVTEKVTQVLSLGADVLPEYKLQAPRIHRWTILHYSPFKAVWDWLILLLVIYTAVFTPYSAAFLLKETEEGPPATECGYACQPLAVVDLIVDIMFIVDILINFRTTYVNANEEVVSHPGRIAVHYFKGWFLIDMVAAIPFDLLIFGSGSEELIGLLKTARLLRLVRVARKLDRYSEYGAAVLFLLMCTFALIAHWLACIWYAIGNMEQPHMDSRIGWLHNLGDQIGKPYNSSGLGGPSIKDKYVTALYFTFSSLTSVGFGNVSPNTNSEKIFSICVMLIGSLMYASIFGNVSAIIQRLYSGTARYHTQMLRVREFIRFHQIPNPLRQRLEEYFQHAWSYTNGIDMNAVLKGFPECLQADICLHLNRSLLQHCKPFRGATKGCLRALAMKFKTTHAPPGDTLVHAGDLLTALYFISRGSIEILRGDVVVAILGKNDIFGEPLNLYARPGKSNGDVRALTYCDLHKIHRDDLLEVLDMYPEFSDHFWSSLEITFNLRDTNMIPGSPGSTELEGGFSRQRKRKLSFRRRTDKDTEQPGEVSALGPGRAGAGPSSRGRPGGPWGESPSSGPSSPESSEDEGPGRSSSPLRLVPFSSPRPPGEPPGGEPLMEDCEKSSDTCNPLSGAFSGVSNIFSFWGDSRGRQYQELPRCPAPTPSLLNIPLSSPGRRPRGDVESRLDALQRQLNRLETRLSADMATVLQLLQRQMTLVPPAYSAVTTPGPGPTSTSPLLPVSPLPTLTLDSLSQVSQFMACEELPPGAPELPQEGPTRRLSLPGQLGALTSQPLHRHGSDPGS

Compound | hERG current change (%, negative = inhibition) at 10uM
COc1ccc(CN=C2NN=C(c3ccc(Cl)cc3)CS2)cc1 | -3.21%
O=C(Nc1ccc2c(c1)OCO2)C(c1ccccc1)N1CCCCC1 (stereo not drawn) | -14.2%
CCOc1cccc(/C=N/NC(=O)c2cccnc2)c1O | 4.02%
CC1(C)Cc2c(c(N3CCOCC3)nc3snc(NC(=O)c4ccccc4)c23)CO1 | -4.78%
Cc1nn(C)cc1N1C(=O)c2cccc3c(N)ccc(c23)C1=O | 1.31%
COc1ccc(CN2CN(C(C)C)CSC2=S)cc1 | 8.31%
O=C(NC1CCCCC1)Oc1ccccc1 | 17.2%
CCC1CC2CC(NC(C)=O)C1C2 (stereo not drawn) | 5.42%
Cc1ccc(C)c(S(=O)(=O)N2CCN(C(=O)c3ccnn3C)CC2)c1 | -7.28%
Cc1ccc(Cn2c(N/N=C/c3ccncc3)nc3c2c(=O)n(C)c(=O)n3C)cc1 | -25.9%
O=C(Nc1nnc(SCc2c(Cl)cccc2Cl)s1)c1ccc2ncsc2c1 | 12%
Cc1ccsc1C(=O)NC1CCCCC1C (stereo not drawn) | -17.8%
Br.CC(C)(C)C(=O)Cn1c(=N)n(Cc2ccccc2Cl)c2ccccc21 | -49.2%
CCN1C(=O)[C@H]2[C@@H](c3ccc(C)cc3)N3C(=O)N(c4cccc(Cl)c4)C(=O)[C@@]3(Cc3ccc(Cl)cc3)[C@H]2C1=O | 8.27%
O=C(N[C@H](CO)Cc1ccccc1)c1ccco1 | 9.08%
O=C(NCc1ccccc1)C1=C[C@H](c2csc3ccccc23)C[C@H](OCc2ccc(CO)cc2)O1 | 6.12%
COC(=O)C1=C(c2ccc(F)cc2F)C[C@@H]2CC[C@H]1N2C(=O)N1CCCCC1 | -9.25%
COc1ccc(N(CC(=O)N2CCCC2)S(=O)(=O)c2ccc(NC(C)=O)cc2)cc1 | -9.91%
Oc1ccc(/C=N/Nc2ccc(Cl)nn2)cc1O | -25.2%
O=C(NCCO)/C(=C\c1ccc(Br)cc1)NC(=O)c1cccs1 | -3.91%
CN(CCOc1ccccc1)C(=O)CCc1c[nH]c2ccccc12.Cl | -0.585%
O=[N+]([O-])c1cnc(Nc2ccc(Cl)cn2)c([N+](=O)[O-])c1 | 8.97%
CCO[C@@H]1OC(C(N)=O)=C[C@H](c2ccc(C(F)(F)F)cc2)[C@H]1CCCO | -2.64%
CCOc1cc(/C=C2\CCC/C(=C\c3cc(Cl)c(O)c(OCC)c3)C2=O)cc(Cl)c1O | 11.6%
CCOc1ccc(S(=O)(=O)NCCC(=O)N2CCN(c3ncccn3)CC2)cc1 | -8.57%
C#CCOCCOCCOCCNc1nc(N2CCN(C(=O)Cn3cc(CCC[NH+]=C(N)N)nn3)CC2)nc(N2CCN(C(=O)[C@H](CCCC[NH3+])n3cc(CC(C)O)nn3)CC2)n1.[Cl-] (stereo partly drawn) | 16.4%
COC(=O)c1ccccc1N=Cc1c(O)[nH]c(=O)[nH]c1=O | 3.19%

Compound | hERG current change (%, negative = inhibition) at 10uM
COc1ccc(N2CCN(S(=O)(=O)c3c(C)nc4scc(C)n4c3=O)CC2)cc1 | -0.624%
O=C(COC(=O)c1ccc(S(=O)(=O)Nc2ccccc2)cc1)NCC1CCCO1 (stereo not drawn) | 1.33%
CC(C)(C)N1CSC(=S)N(Cc2ccccc2)C1 | 13.8%
CCOc1ccc(CCNC(=O)COC(=O)Cc2ccc(OC)c(OC)c2)cc1OCC | 7.37%
Cc1cc(=O)oc2cc(OCC(=O)N3CCN(C(=O)C4COc5ccccc5O4)CC3)ccc12 (stereo not drawn) | -53.6%
CCOc1ccc2nc(SCC(=O)NCc3ccc4c(c3)OCO4)[nH]c2c1 | -24.2%
O=C(O)c1ccccc1NS(=O)(=O)c1ccc2ccccc2c1 | 22.3%
CCOC(=O)C(Cc1ccccc1)C(=O)Nc1nccs1 (stereo not drawn) | 11.3%
Cc1cccc(C(C)C)c1NC(=O)COC(=O)COc1ccc2c(C)cc(=O)oc2c1 | 5.19%
Cc1ccc(C(=O)NC(C)c2ccccc2)cc1S(=O)(=O)N1CCOCC1 (stereo not drawn) | -1.39%
Cn1cncc1C#Cc1ccc2cc(C(C)(C)O)oc(=O)c2c1 | 2.61%
CC1CCCN(c2c3c(nc4ccccc24)CCCC3)C1 (stereo not drawn) | -65.2%
O=C(NCCCn1ccnc1)C(=O)NC1CCCCC1 | 10.7%
COc1ccc(C(=O)NC2CC(C)(C)Cc3c2cnn3-c2ccccc2)c(OC)c1 (stereo not drawn) | -2.5%
O=C(CCN1C(=O)c2ccccc2C1=O)C1=NN[C@@H]2C(=O)N(c3ccc4c(c3)OCCO4)C(=O)[C@H]12 | 5.64%
O=C(O)/C=C/C(=O)NCCc1cccc(Cl)c1 | 0.0402%
CC(=O)NS(=O)(=O)c1ccc(NC(=O)/C=C/c2ccc(C)o2)cc1 | 9.8%
Cc1ccccc1NC(=O)CC(C)S(=O)(=O)c1ccc2c(c1)NC(=O)CO2 (stereo not drawn) | -6.12%
Cc1ccc(O)c(C(=O)c2cc(C#N)c(=O)n(C(C)c3ccccc3)c2)c1 (stereo not drawn) | -9.78%
COc1cccc(N=Nc2c(O)[nH]c(=S)[nH]c2=O)c1 | 5.38%
CCOc1ccc2[nH]cc(S(=O)(=O)c3ccc(C)cc3)c(=O)c2c1 | -1.08%
CCOc1cc(Br)c(COc2ccc(C)nc2[N+](=O)[O-])cc1OCC | 19.5%
COc1ccccc1N(CN1CCCC1=O)C(=O)c1c(F)cccc1Cl | 3.97%
CC(=O)c1ccc(N2Cc3ccccc3C2)cc1 | -2.58%
Cn1c(=O)cc(SCC(=O)Nc2ccc3c(c2)OCO3)c2ccccc21 | 9.14%
CC(C)CC(=O)N(Cc1ccc(F)cc1)C1CCS(=O)(=O)C1 (stereo not drawn) | 9.79%
CC(=O)c1cccc(N(C(=O)c2ccco2)C(C(=O)NC2CCCC2)c2ccncc2)c1 (stereo not drawn) | 5.79%
